The values below come from PubChem BioAssay AID1240 (Sanford-Burnham Center for Chemical Genomics, 2008).

Each structure is given as a SMILES string. Screen size: about 50,000 compounds; about 800 (1.6%) showed an effect of 50% or more. The list shows a part of the results.

This test addresses Bcl-2-like protein 10 (Homo sapiens) (UniProt Q9HD36). As to the kind of experiment: Phenotype converters, Bcl-B/TR3 peptide binding displacement, primary biochemical FP (AID 1240).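 Note: 0% = Bcl-B with tracer peptide and DMSO and 100% = tracer peptide lacking Bcl-B.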 The settings on record: GST-Bcl-B / FITC-TR3 peptide fluorescence polarization; stronger effect = higher value; compound at 3.75 mg/L. (In general: Polarisation of emitted light reports the rotation of a fluorescent probe.)
Chain of UniProt Q9HD36 (Q9HD36 whole entry, looked up): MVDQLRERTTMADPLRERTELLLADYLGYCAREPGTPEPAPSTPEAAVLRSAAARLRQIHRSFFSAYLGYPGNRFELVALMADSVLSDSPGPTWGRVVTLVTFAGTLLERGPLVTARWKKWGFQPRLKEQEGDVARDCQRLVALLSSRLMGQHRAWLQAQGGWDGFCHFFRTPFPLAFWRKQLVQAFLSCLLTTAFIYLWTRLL
With `O=C(Nc1ccc(F)c([N+](=O)[O-])c1)c1cc2ccccc2o1`, the displacement was -1.5%.

With `NC(=O)c1cnn2c1NC(c1ccco1)CC2C(F)(F)F` (stereo not given), the displacement was found to be 4.2%. For `CC(C)Oc1ccccc1NC(=O)c1ccc(F)c2ccccc12`, the displacement is -22.4%.

Turning to `COc1ccc([N+](=O)[O-])cc1NC(=O)CC(c1ccccc1)c1ccccc1`, the displacement amounted to 12.9%. The figure for `COc1ccc(OC)c(N2C(=O)CC(Cc3cc(C)cc(C)c3)C2=O)c1` (stereo not given) is 0.4%; for `O=C(CCCN1C(=O)/C(=C/c2cccs2)SC1=S)N1CCOCC1` it is 0.8%. To `COc1ccc(C(=O)Nc2cc(Cl)ccc2Cl)cc1NC(=O)c1cccc(F)c1` belongs 9.5%; to `Cc1cc(/C=C2/SC(=S)NC2=O)c(C)n1-c1cccnc1`, -8.3%; to `CCOc1cc(/C=N/NC(=O)c2cccs2)ccc1OCc1ccc([N+](=O)[O-])cc1`, -10.5%. On to `Cc1ccc2c(c1)NC(C)(C)c1sn(Cc3ccc(Cl)cc3)c(=S)c1-2`, for which the displacement is 1.4%. As for `O=C(CC1(c2ccccc2)C(=O)c2ccccc2C1=O)NC1CCCCC1`, the displacement came out at 12.1%.

As to `O=C(c1ccc2c3c(cccc13)CC2)N1CCN(c2ccccn2)CC1`, the displacement was determined as 8.7%.

As to `COc1ccc(/C(=C2\OC(=O)c3ccccc32)[N+](=O)[O-])cc1`, the displacement is -4.2%. The figure for `CC1CCc2c(sc(NC(=O)/C=C/c3ccccc3)c2C(N)=O)C1` (stereo not given) is 10.5%. In the case of `Cc1cc2nc(-c3cc(NC(=O)/C=C/c4cccc([N+](=O)[O-])c4)ccc3O)oc2cc1C`, the displacement is 1.6%. To `O=C(/C=C\c1ccc(-c2cc(Cl)ccc2Cl)o1)c1ccccc1` belongs 24.9%. For the molecule `CCOc1ccc(C(=O)Nc2cccc(-c3nc4cc(Cl)ccc4o3)c2C)cc1Br`, the displacement came to 10.2%.

As to `Cc1c(Cc2ccccc2)sc(NC(=O)c2ccc([N+](=O)[O-])cc2)c1C(N)=O`, the displacement amounted to 65.7%. The figure for `N#Cc1ccccc1NC(=O)CSCCSCC(=O)Nc1ccccc1C#N` is 17.7%. To `CN(C)CCNC(=O)C12CC3CCC(CC(C3)C1)C2` belongs 3.1%. To `O=C(Nc1cccc(-c2nc3ccccc3s2)c1)c1ccc2c(c1)OCCO2` belongs 5.6%.

As to `O=C1NC(=S)N(C(=O)c2ccc(F)cc2)/C1=C/c1ccc2c(c1)OCO2`, the displacement is -3.5%.

With `Cc1cc(OCC(=O)NCC(C)C)ccc1Br`, the displacement is 2.5%. To `Cc1cc(=O)oc2cc(OCC(=O)OC(C)C)c(Cl)cc12` belongs -2.5%. To `CCCCSc1nnc2c(n1)OC(/C=C/c1ccccc1)Nc1ccccc1-2` (stereo not given) belongs -8.1%; to `N#Cc1ccc(NC(=O)c2ccccc2)cc1`, 16.1%.

For the molecule `COC(=O)c1ccc(/C=N/Nc2nncc(-c3ccccc3)n2)cc1`, the displacement was -9.1%. The figure for `COc1cc(NC(=O)c2cccs2)c(Cl)cc1NC(=O)c1ccccc1` is 3.5%; for `CCOc1ccc2c(=O)c(-c3ccccc3OC)c(C(F)(F)F)oc2c1` it is 17.4%; for `Cc1ccc2nc(/C(C#N)=C/c3cc(Br)ccc3OCc3ccccc3)[nH]c2c1` it is -2.3%.
